From the supplement of paper PMC8291772
± gives the standard error. The list shows a part of the results.

molecular target: terminal deoxynucleotidyl transferase (calf thymus) (UniProt P06526); experiment: TdT poly-dT extension signal (Cy3 hybridisation fluorescence, uncapped minus capped) (fluorescence a.u.); higher = more efficient initiation of TdT extension; details: initiator chemistry: L-DNA (mirror-image), free 5'-OH (3'-tethered via HEG linker)
In short: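 Initiators one to five nucleotides long were built by photolithographic in situ synthesis on glass, attached through a hexaethylene glycol linker, with replicates left uncapped or capped with DMTr-dT. For extension, arrays were held at 37 °C for 120 min in TdT buffer with 0.2 u/μL calf thymus TdT, 100 μM dTTP and 0.25 mM CoCl2. After hybridization at 4 °C with a Cy3-labelled rA18 probe, arrays were scanned at 532 nm, and the extension signal is the mean fluorescence of uncapped spots minus that of capped (background) spots.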

Sequence of UniProt P06526 (P06526 whole entry): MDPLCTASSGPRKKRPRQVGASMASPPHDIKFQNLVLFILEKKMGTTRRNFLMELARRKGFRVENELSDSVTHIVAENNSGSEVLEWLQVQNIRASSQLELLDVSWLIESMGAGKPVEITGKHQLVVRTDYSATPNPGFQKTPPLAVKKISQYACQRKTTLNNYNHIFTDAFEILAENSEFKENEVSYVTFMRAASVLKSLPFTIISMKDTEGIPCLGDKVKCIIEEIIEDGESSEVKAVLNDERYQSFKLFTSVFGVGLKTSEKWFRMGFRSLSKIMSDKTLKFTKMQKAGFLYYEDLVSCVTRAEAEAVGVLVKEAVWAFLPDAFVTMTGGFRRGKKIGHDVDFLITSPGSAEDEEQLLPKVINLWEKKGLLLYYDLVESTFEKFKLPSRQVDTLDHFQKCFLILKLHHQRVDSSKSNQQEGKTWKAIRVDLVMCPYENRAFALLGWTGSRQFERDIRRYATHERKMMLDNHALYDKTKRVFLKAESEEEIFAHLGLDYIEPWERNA

Sequence	TdT poly-dT extension signal
GGATT	74.9 ± 9.2
TATA	181 ± 12
TGAGT	131 ± 9.1
GGGC	62.9 ± 7.1
ATATT	201 ± 13
CGTCA	48.1 ± 5.3
TGCAC	141 ± 11
GCCAT	101 ± 8
ATAGG	198 ± 12
TCCG	221 ± 19
TTAC	275 ± 24
GAAAA	92.8 ± 8
CACT	62.8 ± 5.1
TACTG	153 ± 14
CCATC	82.8 ± 6.9
GACT	93.3 ± 9.4
CGTAC	60.9 ± 10
GATAG	107 ± 6.9
AATGC	75.1 ± 4.9
GACGG	117 ± 18
GAAC	62.2 ± 20
CGAAG	65 ± 9.1
ATGC	80.2 ± 14
CGACC	76.4 ± 8
TGAC	176 ± 7.7
AATTG	77.2 ± 7

Sequence	TdT poly-dT extension signal
CGCG	64.9 ± 6.4
GTAAG	225 ± 10
ACCT	60.9 ± 7.7
GATCA	81.6 ± 7.9
GCAGT	73.5 ± 5.5
GACGA	106 ± 8.7
ACCTG	84 ± 6.2
CGTCG	45.4 ± 5.4
TAGCT	99.8 ± 7.7
TAAT	182 ± 10
CGGGA	60.8 ± 6.1
TGCCG	122 ± 9.3
GGAAT	88.1 ± 5.6
CTTC	120 ± 9.2
GGCC	61.3 ± 8.8
GTGCC	108 ± 5.5
CGGA	56.1 ± 5.8
CTAGG	182 ± 8.8
GCCT	75.9 ± 4.8
GTCCG	147 ± 12
CGCTC	48.2 ± 4.3
GGACC	70.6 ± 4.7
CCGAG	87.5 ± 7.8
CATAT	82.7 ± 8.5
AAGC	53.4 ± 4.2
TAGTT	96 ± 7.2

Sequence	TdT poly-dT extension signal
ACGG	64.6 ± 5.5
GCTCC	67.8 ± 8.8
ATCTT	145 ± 15
ACAT	82 ± 8.4
GACGT	94.7 ± 7.7
CTACT	152 ± 15
GTGGC	112 ± 8.7
CCTTG	71.3 ± 8.8
TGTCC	108 ± 4.2
ACAG	82 ± 7.7
CTAGT	157 ± 12
CACCG	74.4 ± 8.1
TTACT	396 ± 14
TGTTT	120 ± 12
TCCCT	155 ± 18
GAGTC	53.7 ± 4.8
CGATG	73.4 ± 8.6
AGTGG	52.3 ± 9.2
CAGCT	41.4 ± 6.6
AATTA	82.4 ± 8.4
TGGTG	109 ± 9.7
AGTAT	48.2 ± 7.1
TGCGG	142 ± 10
TCTGA	172 ± 12
TATCA	160 ± 12
CGCGT	66.2 ± 5.5

Sequence	TdT poly-dT extension signal
GCGG	75.5 ± 8.2
AGTTT	45.4 ± 6
GCCA	104 ± 8.3
CTGTA	105 ± 8.6
ATTTG	156 ± 10
CTGGA	122 ± 11
ACGCC	48.2 ± 6.1
CATCG	72.9 ± 11
AGATA	53.6 ± 6.9
CAGTA	25.7 ± 14
CTTCC	86.1 ± 12
CCTAA	98.7 ± 6
AAAAG	101 ± 8.9
GAGAT	61.7 ± 5.4
ATGGC	127 ± 8.4
AAAAT	116 ± 8.5
TCTTA	185 ± 18
GGGGG	140 ± 22
GCCAC	117 ± 11
AAAC	95.6 ± 6.7
TTACC	393 ± 30
CAAGG	68.1 ± 7.1
TTTTG	293 ± 38
AACA	77.7 ± 7.8
GTATA	166 ± 9.6
TCCGA	232 ± 16

Sequence	TdT poly-dT extension signal
CGTGC	56.1 ± 9.6
ATCCC	147 ± 16
TTCGC	323 ± 18
CGCAG	68.2 ± 4.8
GACTA	90.7 ± 8
ACTAT	78.1 ± 8.2
GAAGT	63.4 ± 5.8
AGGT	48.1 ± 6.9
CCGGC	73.4 ± 5.9
TGGG	117 ± 12
GGCCG	76.6 ± 5.5
CGGCA	46.5 ± 5.4
TGAA	191 ± 8.7
TTTGA	320 ± 26
TCGGC	137 ± 6.5
AACCT	68.9 ± 7.2
ACTA	84.4 ± 5.3
TTCC	293 ± 17
AGTGT	44.6 ± 5.9
CGGG	67.9 ± 5.8
GCGAT	76.8 ± 5.8
CGGCG	62.5 ± 5.1
AACCA	76.7 ± 5.9
TCACT	166 ± 13
AGGA	41 ± 5.6
CATCA	74 ± 8.4

Sequence	TdT poly-dT extension signal
GGATG	79.8 ± 6.8
TAAGT	139 ± 7.2
TTATG	340 ± 26
TCGA	164 ± 8.8
GATAC	80.4 ± 7.8
TGCCT	141 ± 10
TGAAT	218 ± 9.9
ATTTA	158 ± 8.6
AGCTC	43.9 ± 5.9
ACATA	94.3 ± 6.5
GCATG	68.4 ± 6.1
GATGT	73.7 ± 5.3
GATT	74.5 ± 8.8
CAAC	86.1 ± 7.5
TTACG	380 ± 28
GTTGG	144 ± 11
CAATG	82.3 ± 7.5
ACGGT	45.2 ± 3.5
CACCA	78.3 ± 7.2
ACGTG	55.7 ± 6
CCATT	86.9 ± 6.7
CTTT	127 ± 17
AATT	65.9 ± 7.1
GTCTC	134 ± 13
TACT	156 ± 14
GAGCT	48.4 ± 4.7

Sequence	TdT poly-dT extension signal
CCTGG	79.5 ± 7.8
GCACC	62.7 ± 5.7
GCCTT	65.7 ± 7
AACTT	58.3 ± 8.9
AGCGT	60.8 ± 7
GGGAA	86.2 ± 9.3
ACTCC	51.6 ± 7
CGGCT	41.9 ± 5
CGTGA	62 ± 7.9
ATAC	145 ± 13
TTAGA	396 ± 35
GACG	90.2 ± 7.1
ACGA	68.3 ± 10
GACC	79.2 ± 7.3
CGAAT	80.7 ± 9.7
GGAAG	82.2 ± 8.3
CTTAA	181 ± 12
TTTAT	331 ± 24
TGGAA	157 ± 20
AGCCG	52.1 ± 6.1
ACTGG	71.1 ± 8.8
GCGCA	60.6 ± 4.9
CGAT	58.9 ± 7.2
TGTAG	151 ± 11
TAATT	187 ± 11
CAGA	62.8 ± 6.1

Sequence	TdT poly-dT extension signal
GCCAG	113 ± 9.8
GGTAT	57.1 ± 6.5
TACCA	154 ± 18
TGCC	126 ± 14
TCTT	131 ± 13
CCCGA	104 ± 13
CCCCG	119 ± 4.4
TGCTC	133 ± 7.3
GGTAG	73.1 ± 12
GGGAT	68.8 ± 6.8
CAGCC	42.2 ± 5.7
GGCAC	66.6 ± 6.4
GTCTG	128 ± 7.3
TGTC	117 ± 8.9
TTTA	271 ± 29
GTAAC	191 ± 15
CGAA	85.8 ± 8.1
AGTCT	45.6 ± 5.8
TTCTT	311 ± 24
GTCTA	137 ± 11
AACTA	80.8 ± 8.7
CCGA	85.8 ± 6.3
TTCT	243 ± 31
GCCGG	119 ± 8.8
GATG	77.6 ± 6.8
TACAA	219 ± 20

Sequence	TdT poly-dT extension signal
TGCA	144 ± 9.7
GTCG	120 ± 15
TAAA	211 ± 14
TTGC	186 ± 16
GCTC	71.8 ± 6.1
GCATT	82.9 ± 6.6
ACAAA	107 ± 9.3
TGGAC	142 ± 8
CTAT	161 ± 15
AAAGA	99.1 ± 14
CCGGA	78.7 ± 10
CTCCT	111 ± 9.1
CCCA	85.9 ± 8.4
GCAAC	79.9 ± 7.4
TCTC	128 ± 17
CAATC	72.9 ± 9.3
TGTA	126 ± 10
TCGT	107 ± 8
ACGCT	53.3 ± 8.2
TTTGC	271 ± 19
GGGG	92.1 ± 12
CAGTC	40.9 ± 6.1
ATCAG	196 ± 13
TAAAT	192 ± 18
CAGTG	49.3 ± 7.1
TCGCC	117 ± 8.6

Sequence	TdT poly-dT extension signal
TGCAT	139 ± 8.2
AGACC	65.8 ± 5.9
TCATC	161 ± 13
CTCAG	173 ± 11
GCGCG	71.1 ± 5.7
TCGCT	116 ± 9.8
GCGC	65.6 ± 5.8
ATTCC	116 ± 8.7
AATGT	65 ± 6.7
ATGCG	139 ± 13
TTAAG	495 ± 38
AACAG	86.5 ± 6.9
CGTGT	64 ± 6.9
AACC	85.8 ± 9.4
TGTTA	105 ± 9.5
GTCCA	122 ± 10
CCAA	122 ± 5.5
AGGCC	44.8 ± 6.1
TCCAT	191 ± 21
GCAGA	85.2 ± 7.5
ATGTG	137 ± 8.2
CTAC	128 ± 9.8
TGCAG	159 ± 10
TTCGT	330 ± 27
TGCTA	130 ± 14
TATT	147 ± 17

Sequence	TdT poly-dT extension signal
GTCAC	153 ± 10
AGCTT	39.7 ± 5.4
GGGGT	93.9 ± 12
GGCCT	81.3 ± 4.8
ATGGG	140 ± 11
AGAA	72.3 ± 4.3
ATCTC	134 ± 18
TGAGA	183 ± 12
TAGGC	112 ± 10
ATAAC	255 ± 20
GTACG	158 ± 12
GGCT	43.5 ± 5.9
GTCGG	178 ± 14
CATTG	68.2 ± 6.9
ATCG	160 ± 15
GCAC	60 ± 6.6
GCAGC	65.5 ± 4.7
CGGTT	44.1 ± 6.8
AGTTG	42.4 ± 5.7
ACATC	67.4 ± 8.2
ATCCG	155 ± 16
CCGGG	82.9 ± 7.7
CGGGT	53.6 ± 6.7
CGTAT	63.7 ± 4.6
TCTAG	191 ± 9.2
TTAG	308 ± 27

Sequence	TdT poly-dT extension signal
CCGAC	92.4 ± 7.3
CCACC	83.4 ± 6.5
CGCGC	77.5 ± 7.8
CCCAG	107 ± 6.9
TTCTC	274 ± 20
TTTGT	311 ± 21
AGACT	58.5 ± 4.5
TCAT	147 ± 9.1
AATAT	107 ± 12
ACCAG	102 ± 4.9
TAGTG	104 ± 8.4
AATGG	73.7 ± 4.7
CCGAT	71.6 ± 5.6
AATGA	87 ± 9.6
TTCTG	320 ± 24
CGAAC	81.2 ± 6.3
ACAAC	92.6 ± 6.6
